According to paper PMC6033897, “Characterization and Validation of a Human 3D Cardiac Microtissue for the Assessment of Changes in Cardiac Pathology” (Scientific Reports, 2018):
Structures can show the parent of a compound that is named as a salt.

Legend:
cardiac microtissues [1] = assay: Cellular viability (ATP depletion, CellTiter-Glo) in cardiac microtissues; assay type: cell-based; conditions: Homo sapiens, 72 hours, geometric mean
Method: Cellular ATP concentrations were assessed using the CellTiter-Glo® Luminescent Cell Viability Assay as per the manufacturer’s instructions (Promega); for cardiac microtissues 40 µl media was removed prior to the addition of 40 µl CellTiter-Glo® reagent. […] Data from the same treatment on minimum of 3 occasions were averaged to represent the mean ATP measurement.

cardiac microtissues [2] = assay: ER integrity (ER-Tracker blue imaging) in cardiac microtissues; assay type: cell-based; conditions: Homo sapiens, 72 hours, geometric mean
Method: (§1) Cardiac microtissues were stained with fluorescent probes in cell culture media, 40 µl media was removed and 40 µl of 2x multiplexed dye was added back to the well for 30 minutes at 37 °C, 5% CO2. Fluorescent probes used were ER-Tracker blue (2 µM) to measure endoplasmic reticulum (ER) integrity and TMRE (500 nM) to measure mitochondrial membrane potential (ΔΨm). All microtissues were imaged on a Cell Voyager 7000 (YokogawaInc.) and images captured using a 20x objective (Olympus UPLSAPO 0.75 NA, 0.6 mm WD), with a 2 × 2 bin. Plates are imaged live, prior to use the stage temperature was set to 37 °C and CO2 level at 5%. […] Transmitted light images were acquired using a 100 W Halogen lamp as an illumination source. Images were captured over a 60 μm range in the Z-axis with a 5 μm interval between slices. Z-stack images were output as a maximal projection of multiple z-planes.
(§2) Maximum projection images were imported and analysed in the Columbus Platform (v2.7, Perkin Elmer Inc.).

cardiac microtissues [3] = assay: Mitochondrial membrane potential (ΔΨm, TMRE imaging) in cardiac microtissues; assay type: cell-based; conditions: Homo sapiens, 72 hours, geometric mean
Method: as §1, §2

cardiac microtissues [4] = assay: Therapeutic index (IC50 in cardiac microtissues divided by total Cmax); assay type: cell-based, human

## CCCCc1oc2ccccc2c1C(=O)c1cc(I)c(OCCN(CC)CC)c(I)c1 [Amiodarone HCl]
Cardiac microtissues [1]
  IC50: 16 µM
Cardiac microtissues [2]
  IC50: 23.6 µM
Cardiac microtissues [3]
  IC50: 5.29 µM

## CN1CCN(C2=Nc3cc(Cl)ccc3Nc3ccccc32)CC1 [Clozapine]
Cardiac microtissues [4]
  Therapeutic index (TI): lowest IC50 of ΔΨm, ER integrity or ATP depletion / total Cmax: ≤ 100 times Cmax
Cardiac microtissues [1]
  IC50: > 100 µM
Cardiac microtissues [2]
  IC50: 7.82 µM
Cardiac microtissues [3]
  IC50: 56.4 µM

## Cc1ccc(NC(=O)c2ccc(CN3CCN(C)CC3)cc2)cc1Nc1nccc(-c2cccnc2)n1 [Imatinib Mesylate]
Cardiac microtissues [1]
  IC50: 15.8 µM
Cardiac microtissues [2]
  IC50: > 50 µM
Cardiac microtissues [3]
  IC50: 6.29 µM

## CN(C)CCN(Cc1cccs1)c1ccccn1 [Methapyrilene]
Cardiac microtissues [1]
  IC50: > 100 µM
Cardiac microtissues [2]
  IC50: 75 µM
Cardiac microtissues [3]
  IC50: > 100 µM
